PubChem BioAssay AID1508624 (National Center for Advancing Translational Sciences (NCATS), 2021)
Out of some 48,000 compounds screened, about 120 (0.25%) were called active. Roughly 4% stayed inconclusive and do not appear here. Calls come from the whole dose curve; as a rule, active = well fitted activation curve with a large enough effect; inconclusive = small, poorly fitted or top-dose-only effect, or another doubt; inactive = no such curve, though single readings can be large or run the other way. The list shows a part of the results.

Experiment: Primary qHTS for Identification of Small Molecule Activators of Huntingtin-Antisense Promoter Activity; note: nearly all actives have a fitted effect of over 55% in size
Details: HEK293 HTT-AS promoter firefly luciferase reporter, 24 h; series mostly up to 57.5 µM; activity change, positive = activation: at the top concentration
Summary of the method: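 HEK293 cells carrying firefly luciferase reporters were seeded at 2,500 per well in Opti-MEM and cultured for 24 h. They were then treated with compounds at up to 57.5 uM final for 24 h at 37 degrees C before Dual-Glo luminescence readout.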

Activity change, positive = activation, inactive:
Cc1cc(N2CCN(C)CC2)nc2ccc(NC(=O)Nc3ccccc3Cl)cc12 -29.8%
CCN(c1ncnc2c1c(-c1ccccc1)cn2-c1ccccc1)C1CCCCC1 -5.14%
Cc1ccc(OCC(=O)OCc2cc(=O)n3nc(C4CCCCC4)sc3n2)cc1 -8.01%
COc1ccc(N(C(=O)c2ccccc2C)S(=O)(=O)c2ccc3c(c2)n(C)c(=O)n3C)cc1 -5.59%
CCOc1ccccc1NS(=O)(=O)c1c(C(=O)OC)sc2cccc(F)c12 -29.7%
COc1ccc(OC)c(CCNC(=O)c2sc3nc4n(c(=O)c3c2C)CCCC4)c1 -2.04%
CSCCC(NC(=O)C1CCCCC1)C(=O)Nc1ccc(F)c(Cl)c1 (centres undefined) -21.4%
CCNc1c(NC(=O)c2ccccc2OCC)c(=O)oc2ccccc12 -13.7%
COc1cccc(-c2nc(SC(C(C)=O)C(=O)N(C)C)c3c(=O)n(C)c(=O)n(C)c3n2)c1 (centres undefined) -6.15%
CCOC(=O)C1=C(CNCc2ccccc2)NC(=O)NC1c1ccc(C)cc1 (centres undefined) -21.2%
Cc1ccc(N2C(=O)[C@@H]3CSC(c4ccc(C(F)(F)F)cc4)N3C2=O)cc1 (some centres undefined) -9.63%
COc1ccc(-n2c(=O)c3c(C)c(C)sc3n(Cc3ccc(F)cc3)c2=O)c(OC)c1 -27.5%
Cc1ccc(S(=O)(=O)N2CCCc3cc(NC(=O)c4ccc(C(F)(F)F)cc4)ccc32)cc1 -0.942%
COc1ccc(-c2noc(CSc3nnc(-c4ccncc4)n3-c3cccc(C)c3)n2)cc1OC -28.7%
Cc1ccc(-c2cc(-c3coc4ccccc4c3=O)c3c(n2)-c2cc(Cl)ccc2OC3)cc1 -6.66%
COc1ccccc1NC(=O)Cn1c(SCC(=O)NCc2ccccc2)nc2ccccc21 -28.3%
CC(=O)Nc1ccc(-c2nnc3n(CC(C)C)c(=O)c4ccccc4n23)cc1 19.2%
Cc1cc(C)cc(NC(=O)NCC2CCN(Cc3cc(C)ccc3C)CC2)c1 1.46%
COc1ccc(CCC(=O)NCCc2csc(-c3cccc(F)c3)n2)cc1 -10.4%
COc1cc2c(cc1NC(=O)C(C)Oc1ccc(Cl)cc1Cl)oc1ccccc12 (centres undefined) 19.2%
CCNC(=O)Nc1ccc2ncc(Nc3ccc(C)cc3)nc2n1 -1.47%
CCc1ccc(OCC2c3cc(OC)c(OC)cc3CCN2C(=O)Cc2ccc(OC)c(OC)c2)cc1 (centres undefined) -24.4%
COc1cc(-c2nnc(SCC(=O)N(C)C3CCCCC3)o2)cc(OC)c1OC -21.7%
COc1ccc(NC(=O)CCCN2C(=O)C(c3ccccc3)Oc3cccnc32)cc1OC (centres undefined) -35.7%
Cc1ccc(CCNC(=O)CCCn2nc(C)c3c(C)n(-c4ccc(C)cc4)nc3c2=O)cc1 -8.26%
CC(NC(=O)c1ccc(N2Cc3ccccc3Oc3ncccc32)s1)c1ccccc1 (centres undefined) -14.4%
Cc1ccc(/C=C/c2onc(C)c2S(=O)(=O)N2CCC(C(=O)NCc3ccc(Cl)cc3)CC2)cc1 -11.5%
CC(C)CCCC(C)N (centres undefined) -4.5%
O=C(NCCc1ccc(Cl)cc1)c1ccc2c(c1)N(Cc1ccc(F)cc1Cl)C(=O)CS2 -34.5%
CCOC(=O)C(C)NC(=O)c1cc2c(=O)[nH]c3ccc(C)cc3c2s1 (centres undefined) -3.88%
Cc1c(Cl)cccc1NC(=O)C(=O)NCCc1csc(-c2cccc(F)c2)n1 -8.76%
COc1ccc(NC(=O)c2ccc(-c3cccc(Cl)c3C)o2)cc1 -5.35%
COc1ccc(-c2[nH]c(-c3ccccc3)nc2SCC(=O)Nc2ccc3c(c2)OCO3)cc1 -24.5%
CCn1c(CN2CCCCC2)nc2cc(NC(=O)COc3ccc([N+](=O)[O-])cc3)ccc21 -34.6%
COc1ccc(-c2nc(CSc3nc4ncccc4[nH]3)c(C)o2)cc1OC -27.5%
CC(NC(=O)Cc1ccc(NC(=O)N2CCCCc3ccccc32)cc1)c1ccccc1 (centres undefined) -13.9%
O=C(Nc1ccc(F)cc1)c1cccc(N2CCCS2(=O)=O)c1 21.3%
CN(C)CCn1nnnc1SCC1=C(C(=O)O)N2C(=O)[C@@H](NC(=O)Cc3csc(N)n3)[C@H]2SC1 1.68%
Cc1cc(=O)n(C(C)C(=O)NCc2ccccc2Cl)c2c1c(C)nn2-c1ccccc1 (centres undefined) -14.4%
COc1cc(OC)c(C2C=C(c3ccc(C)cc3)Nc3c(C(=O)Nc4ccccc4)cnn32)cc1OC (centres undefined) -38.5%
Cc1ccc(C(C)C)c(OCC(=O)Nc2c(C(=O)c3ccc(F)cc3)oc3ccccc23)c1 -5.74%
Cc1cc(O)c(C(c2ccccc2Cl)N2CCCCC2)c(=O)n1Cc1ccco1 (centres undefined) 6.36%
Cc1c2cnn(CC(=O)N3CCCCC3)c(=O)c2c(C)n1Cc1ccc(Cl)cc1 -18.4%
CCc1ccc(C2N3CC4(C)CN2CC(c2ccccc2)(C3)C4=O)cc1 (centres undefined) 0.345%
CCOC(=O)N1CCN([N+]([O-])=NOc2ccc([N+](=O)[O-])cc2C#N)CC1 -35.1%
CCn1cc(C(=O)NCc2ccccc2)c(=O)c2cc(S(=O)(=O)N3CCOCC3)ccc21 -14.9%
COC(=O)C1=C(C)NC(=O)NC1c1cn(-c2ccccc2)nc1-c1ccc(OC)c(Cl)c1 (centres undefined) -26.2%
CCOc1ccc(CNC(=O)CN2C(=O)CSc3ccc(S(=O)(=O)N4CCOCC4)cc32)cc1OC -4.04%
CN(C)CCOC(c1ccccc1)c1ccc(Br)cc1 (centres undefined) -13.6%
Cn1c(=O)cc(OCC(=O)N2CCN(c3ccccc3F)CC2)c2ccccc21 -6.59%
O=C(CCCCn1c(=O)c2ccccc2n(Cc2ccccc2F)c1=O)NCc1ccc2c(c1)OCO2 -8.73%
Cc1cc2oc(C(=O)N(Cc3ccc(N(C)C)cc3)CC3CCCO3)c(C)c2cc1C (centres undefined) -20.3%
O=C(NCc1ccc(Cl)cc1)C1(c2cccs2)CCOCC1 -16.7%
CCC1=Nc2cc(C(=O)NCCCOC(C)C)ccc2Sc2ccc(C)cc21 -38.7%
COC(=O)C1=C(C)NC(C)=C(C(=O)OCCCN2CCC(c3ccccc3)(c3ccccc3)CC2)C1c1cccc([N+](=O)[O-])c1 (centres undefined)
CCN1CCc2c(sc(NC(=O)CSc3ccccc3)c2-c2nc3ccccc3s2)C1 -23.9%
CC(=O)c1cccc(Nc2cc(C)nc3nc(-c4ccccc4C)nn23)c1 -16.1%
Cc1ccc(CNC(=O)C2CCCN(c3nc4c(C)cc(C)cc4s3)C2)cc1 (centres undefined) 21.3%
COC(=O)c1ccccc1NC(=O)CCn1nc(C)c2c(C)n(-c3ccccc3)nc2c1=O 13.2%
Cc1ccc(OCCSc2nc3ccccc3n2CC(=O)N2CCCCC2)cc1C -30%
O=C(Nc1ccc(NC(=O)c2cccs2)cc1)c1ccc(Cl)cc1 -9.3%
COC(=O)c1ccccc1NC(=O)Cn1ncc2c(C)n(Cc3ccc(F)cc3)c(C)c2c1=O -18.3%
CCOc1cccc2sc(NC(=O)c3ccc(S(=O)(=O)N4CCc5ccccc54)cc3)nc12 -15.9%
CCc1cccc(C)c1NC(=O)C(CC)Sc1nc2ccncc2[nH]1 (centres undefined) -14.2%
CCCN1CCN(CC2=C(C(=O)OCC)C(c3cccc(OC)c3OC)NC(=O)N2)CC1 (centres undefined) 6.33%
CCCCc1nn2c(=O)cc(COC(=O)c3ccc(NC(=O)c4cccc(OC)c4)cc3)nc2s1 -5.76%
Cc1ccc(NC(=O)N2CCc3c(sc4c3CCCC4)C2c2ccccc2)cc1F (centres undefined) 22.4%
CSc1ncc(C(=O)NCc2ccccc2Cl)c(C(F)(F)F)n1 -18%
COc1ccc(CN2CCN(c3ncnc4sc5c(c34)CCCC5)CC2)cc1F -49%
CCCCN(C)C(=O)c1ccc2c(c1)N(Cc1cccc(Cl)c1)C(=O)c1ccccc1S2=O (centres undefined) -37.4%
CCOC(=O)CSc1nc2cc3c(cc2c(=O)n1CCCCCC(=O)NCc1ccc2c(c1)OCO2)OCO3 -7.22%
Cc1cc(C)cc(NC(=O)N2CCN(C)c3ncccc32)c1 -9.74%
COc1cc(C2Nc3ccccc3-c3nnc(SCc4ccc(Cl)cc4)nc3O2)ccc1OCC(=O)O (centres undefined) 11.5% [at 11.5 µM, percent change from vehicle, -100% = no light]
Cc1ccc2c(CC(=O)Nc3ccc(S(=O)(=O)Nc4nc(C)cc(C)n4)cc3)coc2c1 -17.4%
COC(=O)c1ccc(NC(=O)c2nn(C)c3c2COc2ccccc2-3)cc1 1.74%
CCOc1ccc(OCC(=O)NCCS(=O)(=O)N2CCN(c3ccc(OC)cc3)CC2)cc1 3.67%
Cc1ccc(NC(=O)Cn2c(=O)n(CCc3ccccc3)c(=O)c3sc4ccccc4c32)cc1C 3.32%
COc1ccccc1CNS(=O)(=O)c1cc(-c2cc(C)no2)ccc1C -28%
Cc1nn(CCCC(=O)NCCc2ccc(Cl)cc2)c(=O)c2nn(-c3ccccc3)c(C)c12 -15.2%
O=C(NCc1cccc(Cl)c1)c1oc(=O)c2ccccc2c1-c1ccccc1 -13.3%
CCn1c(=O)c(C(=O)Nc2cc(OC)c(OC)c(OC)c2)nc2ccccc21 6.81%
COc1ccc(C2CC(=O)c3cc(-c4nc(-c5cccc([N+](=O)[O-])c5)cs4)c(=O)n(-c4ccccc4C)c3C2)cc1 (centres undefined) -17.1%
O=C(NCc1ccccc1F)c1cccc(NC(=O)N2CCSc3ncccc32)c1 -12.9%
CCN(CC)CCOC(=O)c1ccc(N)cc1 -3.42%
O=C(COc1ccccc1)NCCc1csc(-c2ccc(F)cc2)n1 -14.4%
CC1(c2ccccc2)OC(C(=O)O)=CC1=O (centres undefined) -5.58%
CN(C(=O)Cn1c(=O)n(Cc2ccc(C(=O)NCc3ccc4c(c3)OCO4)cc2)c(=O)c2ccccc21)c1ccccc1 -21.5%
COc1ccc(CNC(=O)CCc2nc3cccnc3n2Cc2ccc(OC)cc2)cc1 -9.22%
Cc1cccc(C)c1NC(=O)CN(CC(=O)O)CC(=O)O -1.88%
CCCCOc1ccc(Cn2c(=O)oc3ccccc32)cc1 -5.4%
O=C(Cn1cc(S(=O)(=O)Cc2cccc(Cl)c2)c2ccccc21)Nc1ccc(F)c(Cl)c1 -43.8%
Cc1ccccc1Cc1c(C)nc2c(-c3ccccc3)c(C)[nH]n2c1=O -46.3%
Cn1c2ccccc2c2c(C(=O)N3CCN(c4cccc(C(F)(F)F)c4)CC3)cn(C3CCCCC3)c(=O)c21 -25.9%
Cc1ccc(-c2cn3nc(N4CCC(C(=O)Nc5ccccc5C)CC4)sc3n2)cc1 27.4%
